Assay results reported in the supplement of paper PMC4604168 (melanoma cell lines).
This is one part of the list. Repeats are few or missing, and single values can be far off.

Legend:
Experiment in all cases: cell count relative to DMSO control; melanoma cells; higher = more viable cells
Conditions in all cases: library dose: low library concentration; 72 h
MeWo = test system: MeWo
RPMI7951 = test system: RPMI7951
RVH-421 = test system: RVH-421
SkMel28 = test system: SkMel28
SkMel30 = test system: SkMel30
SkMel5 = test system: SkMel5
UACC257 = test system: UACC257
UACC62 = test system: UACC62
WM115 = test system: WM115
WM1716 = test system: WM1716
WM1745 = test system: WM1745
WM3526 = test system: WM3526
WM3619 = test system: WM3619
WM451Lu = test system: WM451Lu
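Further: cell number obtained by counting DAPI-stained nuclei in high-throughput microscope images with image analysis software, screen run in 1,536-well plates.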

SMILES | cell count (MeWo) | cell count (RPMI7951) | cell count (RVH-421) | cell count (SkMel28) | cell count (SkMel30) | cell count (SkMel5) | cell count (UACC257) | cell count (UACC62) | cell count (WM115) | cell count (WM1716) | cell count (WM1745) | cell count (WM3526) | cell count (WM3619) | cell count (WM451Lu)
O=C1NC(=O)/C(=C/c2ccc(-c3ccc(F)cc3O)o2)S1 + CC(C)CCN1c2nc(Nc3cc(F)c(O)c(F)c3)ncc2N(C)C(=O)C1C [BID1870] (first compound 1 µM, partner dose 0.2 µM) | 10.1% | 105% | 106% | 84.6% | 80.3% | 92.9% | 75.4% | 83.6% | 104% | 88.4% | 94.9% | 74.7% | 92.6% | 116%
COc1ccc(-c2ccc3c(N4CCOCC4)nc(N4C[C@@H](C)O[C@@H](C)C4)nc3n2)cc1CO + c1cc(-c2cnn3cc(-c4ccc(OCCN5CCCCC5)cc4)cnc23)ccn1 [Dorsomorphin] (first compound 0.02 µM, partner dose 0.4 µM) | 93.7% | 84.8% | 103% | 116% | 92.6% | 87.6% | 76.3% | 77.6% | 101% | 111% | 79.8% | 97.1% | 109% | 85.3%
COc1cc2ncnc(Nc3ccc(Oc4ccccc4)cc3)c2cc1OC + CCCCCCCCCCCC1=C(O)C(=O)C=C(O)C1=O [Embelin] (first compound 2 µM, partner dose 1.2 µM) | 99.8% | 111% | 97.8% | 86.1% | 50.1% | 110% | 97.8% | 97% | 102% | 121% | 85.6% | 56.1% | 130% | 103%
COC(=O)c1sccc1S(=O)(=O)Nc1ccc(Nc2ccccc2)cc1OC + c1cc(-c2cnn3cc(-c4ccc(OCCN5CCCCC5)cc4)cnc23)ccn1 [Dorsomorphin] (first compound 1 µM, partner dose 0.4 µM) | 103% | 98.4% | 103% | 87.3% | 102% | 74.2% | 96.4% | 103% | 100% | 112% | 99.6% | 97.1% | 107% | 84.7%
Oc1nc(-c2ccc(C(F)(F)F)cc2)nc2c1CSCC2 + Cn1cc(/C=C2\C(=O)Nc3cccnc32)c2ccccc21 [GW441756] (first compound 2 µM, partner dose 0.4 µM) | 88% | 102% | 76.6% | 74.6% | 88.7% | 88.5% | 99.4% | 82.4% | 96.9% | 66.9% | 83.2% | 104% | 83.1% | 114%
COc1ccc(COc2ccc(Cc3cnc(N)nc3N)cc2OC)cc1 + Cn1cc(/C=C2\C(=O)Nc3cccnc32)c2ccccc21 [GW441756] (first compound 1 µM, partner dose 0.4 µM) | 107% | 105% | 95.1% | 84.6% | 94.9% | 79.8% | 72.2% | 94.6% | 106% | 105% | 90.5% | 93.7% | 134% | 116%
COc1ccc2c(c1)CCC1C2CCC2(C)C(NCCCCCCN3C(=O)C=CC3=O)CCC12 (centres undefined) + COc1ccc(COc2ccc(Cc3cnc(N)nc3N)cc2OC)cc1 [GW2580] (first compound 0.4 µM, partner dose 1 µM) | 80.3% | 55% | 108% | 91.6% | 99.9% | 90.6% | 86.8% | 94.2% | 98.9% | 81.2% | 78.7% | 93.7% | 102% | 90.3%
CCN(CC)CCCCNc1ncc2cc(-c3cc(OC)cc(OC)c3)c(NC(=O)NC(C)(C)C)nc2n1 + CC(C)CCN1c2nc(Nc3cc(F)c(O)c(F)c3)ncc2N(C)C(=O)C1C [BID1870] (first compound 0.1 µM, partner dose 0.2 µM) | 98.6% | 108% | 129% | 92.4% | 99.7% | 102% | 68.5% | 102% | 96.6% | 87.3% | 88.2% | 91.8% | 120% | 97.8%
N#Cc1c(O)c2c(-c3ccc(-c4ccccc4O)cc3)csc2[nH]c1=O + COC(=O)c1sccc1S(=O)(=O)Nc1ccc(Nc2ccccc2)cc1OC [GSK0660] (first compound 2 µM, partner dose 1 µM) | 95.2% | 102% | 78.3% | 86.8% | 119% | 99% | 98.3% | 90.8% | 109% | 114% | 105% | 90.1% | 116% | 111%
COc1ccc2c(c1)CCC1C2CCC2(C)C(NCCCCCCN3C(=O)C=CC3=O)CCC12 (centres undefined) + Oc1nc(-c2ccc(C(F)(F)F)cc2)nc2c1CSCC2 [XAV939] (first compound 0.4 µM, partner dose 2 µM) | 104% | 60.7% | 86.1% | 84.5% | 126% | 88.1% | 86.5% | 92.1% | 94.7% | 54% | 90.2% | 104% | 93.8% | 103%
O=C1NC(=O)/C(=C/c2ccc(-c3ccc(F)cc3O)o2)S1 + O=c1cc(-c2cccc3c2Sc2ccccc2S3)oc(N2CCOCC2)c1 [KU55933] (first compound 1 µM, partner dose 1 µM) | 97.8% | 103% | 116% | 88.1% | 109% | 111% | 114% | 110% | 95.8% | 120% | 110% | 72.7% | 108% | 101%
Oc1cc(-c2nc(-c3ccccc3)[nH]c2-c2ccncc2)ccc1Cl + CC(C)CCN1c2nc(Nc3cc(F)c(O)c(F)c3)ncc2N(C)C(=O)C1C [BID1870] (first compound 0.2 µM, partner dose 0.2 µM) | 99% | 91.8% | 80.2% | 76% | 108% | 86.9% | 78.6% | 57.4% | 72.2% | 109% | 75.6% | 58.7% | 91.7% | 95%
COc1ccc(COc2ccc(Cc3cnc(N)nc3N)cc2OC)cc1 + O=C(O)C(=O)Nc1sc2c(c1C(=O)O)CCNC2 [TCS401] (first compound 1 µM, partner dose 1.66667 µM) | 93.2% | 88.1% | 82% | 85.3% | 86.2% | 96.8% | 93.9% | 78.7% | 91.3% | 83.4% | 77.2% | 90.2% | 67.6% | 112%
Cn1cc(/C=C2\C(=O)Nc3cccnc32)c2ccccc21 + CCCCCCCCCCCC1=C(O)C(=O)C=C(O)C1=O [Embelin] (first compound 0.4 µM, partner dose 1.2 µM) | 101% | 109% | 104% | 82.7% | 114% | 79.2% | 87.3% | 98.5% | 100% | 129% | 91.8% | 100% | 94.6% | 107%
COc1ccc2c(c1)CCC1C2CCC2(C)C(NCCCCCCN3C(=O)C=CC3=O)CCC12 (centres undefined) + CCCCCCCCCCCC1=C(O)C(=O)C=C(O)C1=O [Embelin] (first compound 0.4 µM, partner dose 1.2 µM) | 99.2% | 90.7% | 108% | 100% | 104% | 101% | 109% | 99.7% | 87.2% | 82.5% | 104% | 101% | 138% | 97.8%
CCN(CC)CCCCNc1ncc2cc(-c3cc(OC)cc(OC)c3)c(NC(=O)NC(C)(C)C)nc2n1 + COc1ccc(COc2ccc(Cc3cnc(N)nc3N)cc2OC)cc1 [GW2580] (first compound 0.1 µM, partner dose 1 µM) | 108% | 105% | 123% | 91.9% | 121% | 107% | 113% | 96.4% | 98.7% | 103% | 94.7% | 107% | 127% | 102%
COc1ccc(COc2ccc(Cc3cnc(N)nc3N)cc2OC)cc1 + O=c1cc(-c2cccc3c2Sc2ccccc2S3)oc(N2CCOCC2)c1 [KU55933] (first compound 1 µM, partner dose 1 µM) | 99.5% | 103% | 109% | 79.6% | 101% | 102% | 101% | 98.3% | 89.8% | 92.7% | 86.5% | 89.3% | 114% | 101%
COC(=O)c1sccc1S(=O)(=O)Nc1ccc(Nc2ccccc2)cc1OC + Oc1nc(-c2ccc(C(F)(F)F)cc2)nc2c1CSCC2 [XAV939] (first compound 1 µM, partner dose 2 µM) | 82.9% | 89% | 77.2% | 92.1% | 121% | 86.1% | 90.4% | 87.9% | 91.8% | 69.3% | 80.3% | 112% | 112% | 93.9%
COc1ccc(COc2ccc(Cc3cnc(N)nc3N)cc2OC)cc1 + COc1cc(N2CCC(N3CCN(C)CC3)CC2)ccc1Nc1ncc(Cl)c(Nc2ccccc2S(=O)(=O)C(C)C)n1 [NVP-TAE684] (first compound 1 µM, partner dose 0.08 µM) | 92.1% | 102% | 93.7% | 101% | 97.4% | 95.3% | 94.2% | 92.2% | 81.7% | 89.9% | 87.1% | 93.7% | 123% | 95.8%
COC(=O)c1sccc1S(=O)(=O)Nc1ccc(Nc2ccccc2)cc1OC + CCCCCCCCCCCC1=C(O)C(=O)C=C(O)C1=O [Embelin] (first compound 1 µM, partner dose 1.2 µM) | 99.2% | 90.8% | 112% | 109% | 107% | 102% | 98% | 107% | 100% | 103% | 97.9% | 120% | 117% | 117%
N#Cc1c(O)c2c(-c3ccc(-c4ccccc4O)cc3)csc2[nH]c1=O + Cc1cc([N+](=O)[O-])ccc1NS(=O)(=O)c1cc(Cl)ccc1Cl [FH535] (first compound 2 µM, partner dose 1 µM) | 93.2% | 107% | 79.1% | 88.5% | 97.6% | 91% | 101% | 84.9% | 103% | 105% | 102% | 101% | 104% | 108%
